For 62 sequences, RUNX1 binding intensity results are on record in the supplement of paper PMC10681739.

± gives the standard deviation of the averaged measurements. Over roughly 4,000 sequences, “arbitrary fluorescence units” has its median near 830; the highest 2% begin near 6,500. The list lacks most of the strong results.
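Also: Full-length recombinant human RUNX1 bound to double-stranded DNA microarray spots, detected with an Alexa488-labelled secondary antibody after the anti-RUNX1 primary, read as scanned spot fluorescence.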

Chain of UniProt Q01196 (Q01196 whole entry): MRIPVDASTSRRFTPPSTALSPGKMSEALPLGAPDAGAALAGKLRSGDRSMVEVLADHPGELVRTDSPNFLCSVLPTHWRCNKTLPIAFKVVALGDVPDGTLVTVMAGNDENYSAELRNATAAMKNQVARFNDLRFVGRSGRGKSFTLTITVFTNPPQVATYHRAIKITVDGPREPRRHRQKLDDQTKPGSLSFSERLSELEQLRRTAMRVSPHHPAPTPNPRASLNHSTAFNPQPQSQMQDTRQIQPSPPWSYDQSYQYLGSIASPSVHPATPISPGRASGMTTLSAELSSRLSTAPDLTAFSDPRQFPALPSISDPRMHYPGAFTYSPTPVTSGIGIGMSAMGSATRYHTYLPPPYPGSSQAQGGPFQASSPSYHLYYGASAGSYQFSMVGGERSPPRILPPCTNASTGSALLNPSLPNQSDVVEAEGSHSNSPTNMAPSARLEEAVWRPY

In this assay the target is RUNX1 (UniProt Q01196). Nature of the assay: RUNX1 binding intensity (PBM fluorescence), RUNX1 alone (arbitrary fluorescence units); higher = stronger binding. The conditions noted are these: RUNX1 concentration 2 nM; ETS1 concentration 0 nM. As for the experimental part:
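gcPBM on 36-bp genomic-derived probes (partner site mutated) containing one RUNX1 site and no ETS1 site. Recombinant human RUNX1 (2 nM) was incubated alone or with ETS1 (25 nM) and detected by anti-RUNX1 antibody fluorescence. Values are medians over 4 replicate spots (not normalised). The probes sit in constant array flanks that are not printed.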
The sequence TCTGTGCGGGCTGCAGCTCTCAGACTCAGGCTGAGG returned an RUNX1 binding intensity of 701. Sequence CTACAGGCAGTTCGAACTGGGCGGAGCCCACCGCAG displayed an RUNX1 binding intensity of 733. The value for GCTGGGGCAGCAAGCTTCTAGGCCACAGACAGGACG was 710; that for TAAAATCGTCTCCCGACTCGCTCTGCGGCCCCACGC was 815; that for GACTCGCTCTGCGGCCCCACGCAGGGAGCCTCCTTG was 905.

Consider CTGTGGGTAACTGAAATCACAGCAAGTGGAACTGTA, for which the RUNX1 binding intensity turned out to be 780.

In turn, CGTGACCACGGGGACCGAAAGTGGCGCCCGGCGCAA had an RUNX1 binding intensity of 677.

In turn, ATTTTTCGTTCCTTCTCCCGTCCCCGCAGAGTGCAA displayed an RUNX1 binding intensity of 1810. For the sequence CTGCTGGGCCCCGTCCTGTCAGCGGTTGCTCTTTAC, the RUNX1 binding intensity is 946. With CCGGGACCTGAAGAGGGAGCCGTGGTTGCTGGAACT, the RUNX1 binding intensity amounted to 792. Regarding GAGCAAGCAGTGGTCAGGGAAGGCTTGCTGGAAGAG, the RUNX1 binding intensity came out at 873. The value for TTGACCCGAACGTGGACAAAAGACCGCAAAGGACGC was 1080; that for CCCTTGCCCGCAGGACGGCGGCCCGAAAGTGACGTA was 1130. The sequence CCTTGCTTTCAGGGGACTGCCTGGGACAACCACGCA had an RUNX1 binding intensity of 714.

Consider GAAATCACCTCCTTTTGCAAAACCACAGGTGTTTTG, for which the RUNX1 binding intensity stood at 982. Then CACTGTGCTCTAACCACACTGACATGCGCCTGCCTC, with 1470; and GACTAACGGCAAAGAAGGACGAGTACGCGGTCCCGG, with 679; and GGAGGAGACCGCGGCGTTAGCGTGACCCGGGTGCGC, with 664. The value for ACCTCATGCTGCTGTTCTTGTGTGTGGTTGAGCAGT was 870. The value for TGAAACCGCTGCCGCCGCCCTCGGGTTCAGCCGCGG was 914; that for GGCCTCCGCGCCTGCAGAACTACAGCTCCCACAAGG was 825; that for GAGCTGCTCCGACAGGGTGGTGTGTGGTCAACCTTG was 808.

For the sequence TCCCCTGTGGGTTCCCCTCCCCAGCATGTTGCCACC, the RUNX1 binding intensity turned out to be 919. As for TCAATAAGACAGGGTGTTCTCCAACCGCATTAAGCT, the RUNX1 binding intensity is 828. The sequence TCCCCGGCAGCTCCCTCGCCCCGACCGCAGTGTTCC had an RUNX1 binding intensity of 1820. In the case of TATTACTTCAGGGAGCCCAGGGGGAACCGCGCCCCG, the RUNX1 binding intensity is 651. On to TGCTTACGGCGGGCGCTTGCTCCCCGCGGTCCGCAC, for which the RUNX1 binding intensity worked out at 673. Regarding GGGTGGTTACTCGGCATGCTGTTGGGCTTACGGTGT, the RUNX1 binding intensity came out at 736.

As to AGGTGGTTTGGCCTTTTTGTCCAGCAGCATGTGATA, the RUNX1 binding intensity came out at 752.

GGGGTGGGGACACCGCGGAGGCCCGGGAATGGTGAC registered an RUNX1 binding intensity of 775.

TTTAAACCCACAAGCAGGCCCCTGCCCCTTCATGGA yielded an RUNX1 binding intensity of 1410. Sequence ACCAAGTTGCGGGCAGGATCTTTCTGTAGTTTGCCT registered an RUNX1 binding intensity of 1430. The sequence GGAGGCTGCGGGGGCCGCACTCAGCCTGAATCCCTG gave an RUNX1 binding intensity of 768. In the case of TAGGCTGGAAAGCACCACCGTCCTCCCGCAGGCCGC, the RUNX1 binding intensity worked out at 760. Turning to CAAGTGTGTGGTCTCCTCTTATTCCCGGGTCTGTCA, the RUNX1 binding intensity was determined as 903. Then TCGCCTGCGTTGCGCTGGTTGTGGGCTTTCAGCGGC, with 679; and GAAGGGACGAAGCCTGAGAACTGTGGTCTCCTGAAG, with 719. The sequence AGCAGCAAGTATGTTGAAAGTCATAACCACAGCAAA had an RUNX1 binding intensity of 741.

In turn, CTCTTCTCAGCAAGGGGCTGTGGGATGTAGGATTCC registered an RUNX1 binding intensity of 797. GAGAGAGTGCCGCGTAGGGGTCACCGCGAGTCGCAA had an RUNX1 binding intensity of 701. In turn, GCTGTGGGCGGTGCAGGAGGGATCCAGAAGAGACGA came in with an RUNX1 binding intensity of 826.

With CAACTCACCTCCTCTGGCAACAACCACTAATCCACT, the RUNX1 binding intensity was 1350.

For AAGGGCAAAGCCACAGCCACTTGCGCCCAGCGCTTC, the RUNX1 binding intensity stood at 737.

ACCCACCCGAAAGTCCTCCTGGCCCACAAGCTCCGC yielded an RUNX1 binding intensity of 1080. Sequence AAGATGGCGGCCGCAGAGCCGCCCACCTCCCCCTCC displayed an RUNX1 binding intensity of 819. In turn, AAGCCACTGCCTGGTGACCCAGTGGTAAACACTTGA displayed an RUNX1 binding intensity of 722. For the sequence CGAGTCAGCAAATCACAGCTCTGCGGGTGGGCTCCT, the RUNX1 binding intensity is 739. The value for CGTTCGCGGTTCCTCTCGGCCCCGTATGTGACTGTT was 1230; that for CTGCCATGAAGGGTTCTGGTTTGAGGTCTCCTCTTA was 741. Sequence CCACCGTGCGGTAAACTGCACCTCCTCACTTAGCAC came in with an RUNX1 binding intensity of 1800.

The sequence CGAGCGCATGATGGGGTTGTCGACCGCGCGGCGAGC returned an RUNX1 binding intensity of 616. For the sequence TCCCTGGAGCGGTTTTAGGGGGCCGCCTCCTTGGCC, the RUNX1 binding intensity is 775 ± 21.

GACGGCCGCTTGTGGCGCGGGACTTGCTGCCTGGCC returned an RUNX1 binding intensity of 762. In the case of CTGTCCGCTACATACGGGACCTGCGGGACCGCCGAT, the RUNX1 binding intensity was determined as 860. The sequence CCCGGACCGCAGGCCGGACTACAATTCCCGTCGGCC showed an RUNX1 binding intensity of 947. TGTTACCACTGTTAGACTAGAGAGCATGCTGTTGTT showed an RUNX1 binding intensity of 841. Regarding GCCCGTAAGCGCGACGCTGGAGCTGCGGGGTTACCA, the RUNX1 binding intensity was 818. In the case of CTCCCGTACGCTAACGTCTGGCAAACCACATTGCCC, the RUNX1 binding intensity is 1010. The value for TATCAATAAGGACGTACAATCACCAAACCACAAGCC was 1120; that for GAGCCGAAAGTGAAGGAGGGCTTGTGGGAGATGGAG was 769; that for CCAGAGCACCTCCTACACGCACCACAACCTGAAAAC was 1470. For the sequence CCAGAGCAGCATGTTCTGCTGTGGCTAGATAAGCCC, the RUNX1 binding intensity was determined as 665.
